{"source": "patent US20250064779A1", "about": "“COMPOSITIONS AND METHODS FOR THE TREATMENT OF DEPRESSION” (Janssen Pharmaceuticals, Inc., priority 2022, published 2025)", "key": {"[1]": {"test_system": "subjects with MDD who have had an inadequate response to SSRI/SNRI treatment", "assay": "Treatment-emergent adverse events, full safety analysis set, Example 1", "assay_type": "in vivo, human"}, "[2]": {"test_system": "subjects with MDD who have had an inadequate response to SSRI/SNRI treatment", "settings": "eITT"}, "[3]": {"settings": "10 mg (N = 85), treatment period, full safety analysis set"}, "[4]": {"settings": "TEAE of special interest, 10 mg (N = 85), treatment period, full safety analysis set"}, "[5]": {"settings": "Table 24, TEAE in >=5% of subjects in either group, 10 mg (N = 85), full safety analysis set"}, "[6]": {"settings": "high anhedonia (SHAPS >=38 at treatment baseline), Treatment Week 1"}, "[7]": {"settings": "high anhedonia (SHAPS >=38 at treatment baseline), Treatment Week 3"}, "[8]": {"settings": "high anhedonia (SHAPS >=38 at treatment baseline), Treatment Week 4"}, "[9]": {"settings": "high anhedonia (SHAPS >=38 at treatment baseline), Treatment Week 5"}, "[10]": {"settings": "high anhedonia (SHAPS >=38 at treatment baseline), Treatment Week 6"}}, "note": "Read-outs that look alike come from different tables or passages of the source."}
{"smiles": "Cc1cc(C)cc(C2CCCN2Cc2ccc(Oc3ccc(C(N)=O)cc3F)cc2)c1", "note": "(stereo not shown) [aticaprant, 3-fluoro-4-4-2-(3,5-dimethylphenyl)pyrrolidin-1-yl-methylphenoxybenzamide]", "values": [{"measurement": "Subjects with 1 or more TEAE", "setting": "[1]; [3]", "result": "40 (47.1) n (%)"}, {"measurement": "Subjects with 1 or more serious TEAE", "setting": "[1]; [3]", "result": "0 n (%)"}, {"measurement": "Subjects with TEAE leading to death", "setting": "[1]; [3]", "result": "0 n (%)"}, {"measurement": "Subjects with TEAE leading to discontinuation of agent", "setting": "[1]; [3]", "result": "1 (1.2) n (%)"}, {"measurement": "Total subjects affected by non-serious adverse events", "setting": "[1]; [3]", "result": "23 (27.1%) n (%)"}, {"measurement": "Subjects with drug-related TEAE", "setting": "[1]; 10 mg (N = 85), treatment period, full safety analysis set, relationship possible, probable, very likely", "result": "20 (23.5) n (%)"}, {"measurement": "TEAE of special interest: Abdominal Pain", "setting": "[1]; [4]", "result": "1 (1.2) n (%)"}, {"measurement": "TEAE of special interest: Abdominal Pain Upper", "setting": "[1]; [4]", "result": "0 n (%)"}, {"measurement": "TEAE of special interest: Diarrhea", "setting": "[1]; [4]", "result": "7 (8.2) n (%)"}, {"measurement": "TEAE of special interest: Dyspepsia", "setting": "[1]; [4]", "result": "1 (1.2) n (%)"}, {"measurement": "TEAE of special interest: Gastrointestinal Disorders", "setting": "[1]; [4]", "result": "9 (10.6) n (%)"}, {"measurement": "TEAE of special interest: Pruritus", "setting": "[1]; [4]", "result": "5 (5.9) n (%)"}, {"measurement": "TEAE of special interest: Skin And Subcutaneous Tissue Disorders", "setting": "[1]; [4]", "result": "5 (5.9) n (%)"}, {"measurement": "Total no. Subjects with Adverse Events of Special Interest", "setting": "[1]; [4]", "result": "13 (15.3) n (%)"}, {"measurement": "TEAE: Diarrhea", "setting": "[1]; [5]", "result": "7 (8) n (%)"}, {"measurement": "TEAE: Gastrointestinal Disorders", "setting": "[1]; [5]", "result": "12 (14) n (%)"}, {"measurement": "TEAE: Headache", "setting": "[1]; [5]", "result": "10 (12) n (%)"}, {"measurement": "TEAE: Infections And Infestations", "setting": "[1]; [5]", "result": "13 (15) n (%)"}, {"measurement": "TEAE: Nasopharyngitis", "setting": "[1]; [5]", "result": "5 (6) n (%)"}, {"measurement": "TEAE: Nervous System Disorders", "setting": "[1]; [5]", "result": "13 (15) n (%)"}, {"measurement": "TEAE: Pruritus", "setting": "[1]; [5]", "result": "5 (6) n (%)"}, {"measurement": "TEAE: Skin And Subcutaneous Tissue Disorders", "setting": "[1]; [5]", "result": "6 (7) n (%)"}, {"measurement": "Total no. Subjects with Adverse Events", "setting": "[1]; [5]", "result": "40 (47) n (%)"}, {"measurement": "subjects who discontinued during the treatment period due to treatment-emergent adverse events", "setting": "[1]; due to diarrhea, nausea, vomiting and headache", "result": 1, "unit": "subject"}, {"measurement": "TEAE diarrhea during the treatment period", "setting": "[1]; full safety analysis set, 7/85 subjects", "result": 8.2, "unit": "%"}, {"measurement": "TEAE headache during the treatment period", "setting": "[1]; full safety analysis set, 10/85 subjects", "result": 11.8, "unit": "%"}, {"measurement": "subjects who experienced TEAEs of special interest during the treatment period", "setting": "[1]; full safety analysis set, 13/85 subjects", "result": 15.3, "unit": "%"}, {"measurement": "subjects who experienced at least one TEAE during the treatment period", "setting": "[1]; full safety analysis set, 40/85 subjects", "result": 47.1, "unit": "%"}, {"measurement": "patients who experienced acute cholecystitis", "setting": "[1]; treatment period", "result": 0, "unit": "patients"}, {"measurement": "MADRS Total Score: Mean Change to Placebo (SD pooled)", "setting": "[2]; Treatment Week 1, 10 mg adjunctive to SSRI/SNRI", "result": "−1.1 (4.52)"}, {"measurement": "MADRS Total Score: LSMean Difference (SE) Treatment-Placebo", "setting": "[2]; Treatment Week 1, MMRM", "result": "−1.2"}, {"measurement": "MADRS Total Score: Mean Change to Placebo (SD pooled)", "setting": "[2]; Treatment Week 3, 10 mg adjunctive to SSRI/SNRI", "result": "−1.4 (6.18)"}, {"measurement": "MADRS Total Score: Change from Baseline LSMean (SE)", "setting": "[2]; Treatment Week 3, MMRM", "result": "−5.6"}, {"measurement": "MADRS Total Score: LSMean Difference (SE) Treatment-Placebo", "setting": "[2]; Treatment Week 3, MMRM", "result": "−1.5"}, {"measurement": "MADRS Total Score: Mean Change to Placebo (SD pooled)", "setting": "[2]; Treatment Week 4, 10 mg adjunctive to SSRI/SNRI", "result": "−0.9 (7.00)"}, {"measurement": "MADRS Total Score: Change from Baseline LSMean (SE)", "setting": "[2]; Treatment Week 4, MMRM", "result": "−7.3"}, {"measurement": "MADRS Total Score: LSMean Difference (SE) Treatment-Placebo", "setting": "[2]; Treatment Week 4, MMRM", "result": "−1.1"}, {"measurement": "MADRS Total Score: Mean Change to Placebo (SD pooled)", "setting": "[2]; Treatment Week 5, 10 mg adjunctive to SSRI/SNRI", "result": "−1.1 (7.25)"}, {"measurement": "MADRS Total Score: Change from Baseline LSMean (SE)", "setting": "[2]; Treatment Week 5, MMRM", "result": "−8.7"}, {"measurement": "MADRS Total Score: LSMean Difference (SE) Treatment-Placebo", "setting": "[2]; Treatment Week 5, MMRM", "result": "−1.5"}, {"measurement": "MADRS Total Score: Mean Change to Placebo (SD pooled)", "setting": "[2]; Treatment Week 6, 10 mg adjunctive to SSRI/SNRI", "result": "−2.0 (8.49)"}, {"measurement": "MADRS Total Score: Change from Baseline LSMean (SE)", "setting": "[2]; Treatment Week 6, MMRM", "result": "−10.1"}, {"measurement": "MADRS Total Score: LSMean Difference (SE) Treatment-Placebo", "setting": "[2]; Treatment Week 6, MMRM", "result": "−2.1"}, {"measurement": "MADRS total score: difference between aticaprant and placebo", "setting": "[2]; Treatment Week 6, high anhedonia level (SHAPS total score ≥38) at treatment baseline, n=53", "result": "−3.4"}, {"measurement": "MADRS total score: observed effect size", "setting": "[2]; Treatment Week 6, high anhedonia level (SHAPS ≥38)", "result": 0.38}, {"measurement": "MADRS total score: observed effect size", "setting": "[2]; Treatment Week 6, low anhedonia level (20≤SHAPS<38)", "result": 0.11}, {"measurement": "MADRS total score: difference between aticaprant and placebo", "setting": "[2]; Treatment Week 6, low anhedonia level (20≤baseline SHAPS total score <38), n=65", "result": "−0.9"}, {"measurement": "MADRS total score: LSMeans difference estimate vs placebo, supplementary analysis (COVID-19 impact)", "setting": "[2]; data collected prior to 15 Mar. 2020, MMRM", "result": "−3.0"}, {"measurement": "MADRS Total Score: Effect size vs placebo", "setting": "[2]; [6]", "result": "−0.39"}, {"measurement": "MADRS Total Score: Mean Change from Baseline (SD)", "setting": "[2]; [6]", "result": "−4.6 (5.25)"}, {"measurement": "MADRS Total Score: Mean Change to Placebo (SD pooled)", "setting": "[2]; [6]", "result": "−1.8 (4.69)"}, {"measurement": "MADRS Total Score: Effect size vs placebo", "setting": "[2]; [7]", "result": "−0.46"}, {"measurement": "MADRS Total Score: Mean Change from Baseline (SD)", "setting": "[2]; [7]", "result": "−6.7 (6.83)"}, {"measurement": "MADRS Total Score: Mean Change to Placebo (SD pooled)", "setting": "[2]; [7]", "result": "−3.0 (6.59)"}, {"measurement": "MADRS Total Score: Effect size vs placebo", "setting": "[2]; [8]", "result": "−0.30"}, {"measurement": "MADRS Total Score: Mean Change from Baseline (SD)", "setting": "[2]; [8]", "result": "−8.5 (7.26)"}, {"measurement": "MADRS Total Score: Mean Change to Placebo (SD pooled)", "setting": "[2]; [8]", "result": "−2.2 (7.30)"}, {"measurement": "MADRS Total Score: Effect size vs placebo", "setting": "[2]; [9]", "result": "−0.33"}, {"measurement": "MADRS Total Score: Mean Change from Baseline (SD)", "setting": "[2]; [9]", "result": "−9.7 (8.18)"}, {"measurement": "MADRS Total Score: Mean Change to Placebo (SD pooled)", "setting": "[2]; [9]", "result": "−2.6 (7.93)"}, {"measurement": "MADRS Total Score: Effect size vs placebo", "setting": "[2]; [10]", "result": "−0.38"}, {"measurement": "MADRS Total Score: Mean Change from Baseline (SD)", "setting": "[2]; [10]", "result": "−11.5 (8.95)"}, {"measurement": "MADRS Total Score: Mean Change to Placebo (SD pooled)", "setting": "[2]; [10]", "result": "−3.4 (8.98)"}, {"measurement": "MADRS Total Score: Effect size vs placebo", "setting": "[2]; low anhedonia (SHAPS >=20 and <38 at treatment baseline), Treatment Week 1", "result": "−0.12"}]}
